# Inconclusive means that the source gave no clear call. Such entries were picked first, then a sample of the others. No potency is given beside an inconclusive call; the fits are too rough. The source made the active and inactive calls. Calls come from the whole dose curve; as a rule, active = well fitted curve in the direction sought with a large enough effect in the repeat runs; inconclusive = weak or mixed curves; inactive = no such curve, though single readings can be large; an effect the other way counts as inactive or inconclusive.
# Test: qHTS RealTime-Glo MT Cell Viability Assay in HEK293 cells - 0 hour (AID 1224880); note: nearly all actives have a fitted effect of over 45% in size
# Conditions: RealTime-Glo luminescence; series mostly up to 76.8 µM
# How it was run: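 Luminescence readout at each listed time point; HEK293, 600 cells/well, RealTime-Glo MT reagent added with cells; compounds pinned (23 nL in DMSO) after 5 h at 37 C; continuous culture at 37 C.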
# Potency is the fitted concentration of half-maximal effect; tags give direction and shape of the fitted curve.
row,SMILES,Potency
1,OC[C@H]1O[C@@H](n2cnc3c(=S)nc[nH]c32)[C@H](O)[C@@H]1O,inactive
2,C=C(C)[C@@H]1CCC2=CCC[C@@H](C)[C@]2(C)C1,"inconclusive [falling, full curve]"
3,COc1ccc(OC(F)(F)F)cc1CN[C@H]1CCCN[C@H]1c1ccccc1,"inconclusive [rising, partial curve]"

# Test: A CellTox Green Cytotoxicity Assay to monitor cytotoxicity in HEK293 cells - 32 hour (AID 1224881); note: nearly all actives have a fitted effect of over 40% in size
# Conditions: CellTox Green fluorescence; series mostly up to 76.8 µM
# How it was run: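 Read-out: fluorescence of a cell-impermeant cyanine dye staining DNA of dead cells, proportional to cytotoxicity. HEK293, 600 cells/well with reagent, compound (23 nL DMSO) added after 5 h; reads at 0, 8, 16, 24, 32, 40 h.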
row,SMILES,Potency
1,COc1cccc(N)c1,"inconclusive [activator, partial curve, poor fit]"
2,O=C(O)Cc1ccc(OCCNC[C@H](O)c2ccccc2)cc1,inactive
3,NCCS(=O)(=O)O,inactive
4,CCOc1ccc2c(c1)C(C)=CC(C)(C)N2,"inconclusive [activator, partial curve, poor fit] and inactive"
5,c1ccc2cc3c4ccccc4c4ccccc4c3cc2c1,"inconclusive [activator, single point]"
6,CC(C)(C)C1=CC(=O)C=C(C(C)(C)C)C1=O,"inconclusive [activator, partial curve]"
7,Cc1cc(O)cc2c1O[C@](C)(CCC[C@H](C)CCC[C@H](C)CCCC(C)C)CC2,inactive
8,O=c1cc(-c2ccccc2)oc2ccc3ccccc3c12,"inconclusive [activator, partial curve, poor fit]"
9,Cc1ccc(OC(=O)c2ccccc2O)cc1,"inconclusive [activator, partial curve]"
10,COc1cccc(O)c1O,inactive
11,COC(=O)CS,inactive
12,COc1ccc(OC(F)(F)F)cc1CN[C@H]1CCCN[C@H]1c1ccccc1,"inconclusive [activator, single point]"
